Laboratory results from the supplement of paper PMC12217912.
This is one part of the list. The full chains were built here from the parent and the listed change. Inactive controls read about 0.05.

B1: TEV protease; numbered along this chain (parent)
chain: MGESLFKGPRDYNPISSSICHLTNESDGHTTSLYGIGFGPFIITNKHLFRRNNGTLVVQSLHGVFKVKDTTTLQQHLVDGRDMIIIRMPKDFPPFPQKLKFREPQREERICLVTTNFQTKSMSSMVSDTSCTFPSGDGIFWKHWIQTKDGQCGSPLVSTRDGFIVGIHSASNFTNTNNYFTSVPKNFMELLTNQEAQQWVSGWRLNADSVLWGGHKVFMVKPEEPFQPVKEATQL

Variants of: B1
Test: raw area under fraction-flipped curve 0-4 h after induction (AUC4h, not background-subtracted), DNA-recorder readout of cleavage of the substrate (dimensionless); higher = more cleavage of the substrate by the protease variant
Details: temperature: 34 °C; time window: 0-4 h after rhamnose induction
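Also: Bxb1 expression induced with 0.2% (w/v) L-rhamnose at OD600 near 0.5, cultures sampled hourly, flipped fraction per protease–substrate barcode pair counted by paired-end Illumina sequencing.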

Variant | area with substrate ENDYFQS | area with substrate ENGYFQS | area with substrate ENHYFQS | area with substrate ENIYFQS | area with substrate ENNYFQS | area with substrate ENPYFQS | area with substrate ENQYFQS | area with substrate ENSYFQS | area with substrate ENTYFQS | area with substrate ENWYFQS
C152K | 0.0633 | 0.0801 | 0.0605 | 0.036 | 0.0581 | 0.0606 | 0.0613 | 0.0678 | 0.0627 | 0.0622
C152L | 0.0399 | 0.0805 | 0.0647 | 0.0683 | 0.0598 | 0.06 | 0.057 | 0.0591 | 0.055 | –
V200I | 0.0501 | – | – | – | 0.0624 | – | 0.0852 | 0.0582 | – | –
W203A | 0.0687 | 0.0673 | – | 0.093 | 0.0667 | 0.059 | 0.0675 | 0.0595 | 0.0414 | –
D208N | 0.0673 | 0.0663 | – | 0.0986 | – | – | – | – | – | –
D208V | 0.0558 | – | – | 0.0786 | 0.0515 | – | 0.054 | 0.0669 | 0.0635 | –
A232G | 0.058 | – | – | 0.106 | 0.0641 | 0.057 | 0.0506 | 0.0426 | 0.065 | 0.0616
T72A | – | 0.0589 | 0.063 | 0.0851 | 0.0449 | – | 0.0582 | 0.0674 | 0.0415 | –
M88Y | – | 0.0524 | – | – | – | 0.0415 | 0.0261 | 0.0506 | 0.0445 | –
R160N | – | 0.065 | – | – | 0.0718 | 0.0522 | 0.053 | 0.0636 | 0.0643 | –
V200A | – | – | 0.0507 | 0.0815 | – | – | – | 0.0512 | 0.0603 | –
K216S | – | 0.0503 | – | – | – | – | – | – | 0.0638 | –
A232F | – | 0.0675 | 0.0501 | 0.108 | 0.0609 | – | 0.0548 | 0.068 | 0.071 | 0
M88E | – | 0.0454 | 0.0467 | 0.0496 | 0.0237 | – | 0.0866 | 0.0328 | – | 0.0816
T192W | – | – | – | 0.0765 | – | – | 0.0638 | – | – | –
K216R | – | – | – | 0.113 | – | 0.0659 | – | – | – | –

Same assay, conditions: temperature: 34 °C; time window: 0-4 h after rhamnose induction

Variant | area with substrate ENRYFQS | area with substrate ENYYFQS | area with substrate ENVYFQS | area with substrate ENEYFQS | area with substrate ENFYFQS | area with substrate ENMYFQS | area with substrate ENKYFQS
C152L | 0.0548 | 0.0539 | – | – | – | – | –
V200I | – | 0.0808 | 0.0738 | – | – | – | –
W203A | 0.0794 | 0.0663 | 0.0646 | 0.0555 | 0.0618 | – | –
D208N | 0.0535 | 0.072 | 0.0636 | 0.0598 | – | – | –
D208V | 0.0607 | 0.0578 | 0.0685 | 0.0748 | 0.0571 | – | –
A232G | – | – | 0.0816 | 0.0595 | – | 0.0914 | –
T72A | 0.0535 | – | 0.072 | 0.0582 | 0.0593 | – | –
M88Y | 0.0316 | – | – | 0.0531 | 0.0377 | 0.0672 | 0.0412
R160N | 0.0318 | – | – | 0.0807 | – | – | –
V200A | – | – | 0.0453 | 0.0699 | 0.0785 | – | –
V200S | – | – | – | 0.0457 | – | – | –
K216S | – | – | 0.0606 | 0.0625 | 0.0613 | 0.0756 | –
A232F | – | – | – | 0.0619 | 0.0604 | – | –
M88E | 0.0431 | 0.0356 | 0.0616 | – | – | – | –
